Laboratory results from PubChem BioAssay AID360 (National Center for Advancing Translational Sciences (NCATS), 2006).
The whole screen tested about 48,000 compounds, of which about 550 (1.1%) were called active. Inconclusive results (about 4%) are left out. Cut-off read from the data, not from the text of the source: active = potency below about 15 µM; inconclusive = mostly about 16 µM to 33 µM; inactive = weaker than that. The list shows a part of the results.

The molecules below were run against Lysosomal acid glucosylceramidase (Homo sapiens) (UniProt P04062) (assay: Glucocerebrosidase). Conditions: purified enzyme, resorufin glucoside fluorescence (screen aimed at inhibitors), 20 min.
How it was run: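 Wild-type enzyme at 0.2 nM final in 50mM citric acid/KH2PO4, 10mM sodium taurocholate, 0.01% tween-20, pH 5.9, with resorufin beta-D-glucopyranoside at 30 uM final. Compounds titrated, 20 min at RT, red fluorescence read; AC50 from titration.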
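Note: the screen sought inhibitors.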
Potency is the fitted concentration of half-maximal effect.

Chain of UniProt P04062 (P04062 whole entry, looked up): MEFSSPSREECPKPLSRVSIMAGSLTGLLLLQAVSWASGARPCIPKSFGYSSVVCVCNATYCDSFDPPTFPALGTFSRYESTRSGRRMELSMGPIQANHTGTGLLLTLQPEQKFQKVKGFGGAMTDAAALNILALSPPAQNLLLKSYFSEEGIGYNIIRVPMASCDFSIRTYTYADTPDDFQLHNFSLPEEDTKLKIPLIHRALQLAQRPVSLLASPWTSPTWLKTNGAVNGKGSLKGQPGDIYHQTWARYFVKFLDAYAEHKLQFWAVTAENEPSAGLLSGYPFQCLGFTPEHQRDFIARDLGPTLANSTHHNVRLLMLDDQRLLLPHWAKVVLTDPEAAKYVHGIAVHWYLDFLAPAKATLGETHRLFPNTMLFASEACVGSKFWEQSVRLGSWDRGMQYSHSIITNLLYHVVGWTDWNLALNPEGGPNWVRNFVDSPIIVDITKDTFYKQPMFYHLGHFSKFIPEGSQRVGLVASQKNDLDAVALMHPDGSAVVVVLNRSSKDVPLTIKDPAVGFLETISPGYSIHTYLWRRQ

Potency, inactive:
Cc1cc(C)n(C(=O)Cc2cn3ccsc3n2)n1 > 76.9 µM, N#CC1=C(N)C(C#N)(C#N)[C@H](c2ccncc2)[C@H]2CC3(CC=C12)OCCO3 > 76.9 µM, COC(=O)c1ccccc1NC(=O)c1nc2nc(C)cc(C(F)F)n2n1 > 76.9 µM, O=C(NCCCN1CCCCC1)c1ccc2c(c1)NC(=O)C(N1CCCCC1)S2 (configuration not stated) > 76.9 µM, O=C1CCC(=O)N1OCCCOc1ccc2c(c1)CCC2 > 76.9 µM, CCCN1CCN(CCCNC(=O)Cn2nc(-c3ccc(Cl)cc3)ccc2=O)CC1 > 76.9 µM, COc1ccc(-n2c(SC3CCOC3=O)nc3ccccc32)cc1 (configuration not stated) > 76.9 µM, CC(=O)Nc1cccc(OCC(=O)Nc2ccccc2)c1 > 76.9 µM, CN(Cc1ccccc1)c1ncnc2c1cnn2-c1ccccc1 > 76.9 µM, CC(=O)Oc1ccc2c(c1)c(C(C)=O)c(C)n2C > 76.9 µM, COc1ccccc1-c1nnc2sc(-c3cc4ccccc4o3)nn12 > 76.9 µM, Cc1cc(O)c(-c2cc(C(=O)NCc3ccc4c(c3)OCO4)[nH]n2)cc1C > 76.9 µM, CC(C)(C)c1ccccc1NC(=O)c1cccnc1 > 76.9 µM, O=C(CCCCn1c(=O)[nH]c2ccsc2c1=O)NCC1CCCO1 (configuration not stated) > 76.9 µM, CC1CCCCN1C(=O)CSc1nnc(-c2c[nH]c3ccccc23)o1 (configuration not stated) > 76.9 µM, Cc1ccc(C)c(NS(=O)(=O)c2cc(C(N)=O)ccc2C)c1 > 76.9 µM, O=C(OCC(=O)N1CCc2ccccc21)c1cccnc1 > 76.9 µM, COCCn1c(SCC(=O)c2ccc(CNC(C)=O)o2)nc2ccccc2c1=O > 76.9 µM, COC(=O)c1[nH]c2ccc(F)cc2c1NC(=O)CCN1CCN(Cc2ccc3c(c2)OCO3)CC1 > 76.9 µM, CCn1c(=O)c(C)nn2c3ccccc3nc12 > 76.9 µM, CCC(C(=O)NC1CCCC1)N(C(=O)Cn1nnc(-c2ccc(C)o2)n1)C(C)(C)C (configuration not stated) > 76.9 µM, COc1cccc(NC(=O)c2ccccc2NS(C)(=O)=O)c1 > 76.9 µM, COc1cc(CNC2CCC(C)C2)cc(OC)c1 (configuration not stated) > 76.9 µM, CCCCOC(=O)C(C#N)c1nc2ccccc2nc1N1CCOCC1 (configuration not stated) > 76.9 µM, CNc1nc(C)c(C(=O)OCc2ccccc2)s1 > 76.9 µM, COC(=O)c1ccc(CNC(=O)CNc2cc(C(F)(F)F)ccc2N2CCOCC2)cc1 > 76.9 µM, CCN(CC(=O)O)S(=O)(=O)c1cc(Cl)ccc1Cl > 76.9 µM, O=C(CN1C(=O)C2CC=C(Cl)CC2C1=O)Nc1ccc(C(=O)O)cc1 (configuration not stated) > 76.9 µM, CCCc1nnc(NC(=O)CCC(=O)Nc2ccc(F)cc2)s1 > 76.9 µM, CCOC(=O)c1ccccc1NC(=O)Nc1ccc(OC)c(OC)c1 > 76.9 µM, COC(=O)c1[nH]c2ccc(Cl)cc2c1NC(=O)CCN1CCOCC1 > 76.9 µM, CC(=O)NC1C(=O)Nc2c1cccc2C(F)(F)F (configuration not stated) > 76.9 µM, CCC(C(=O)NC1CCCCC1)N(CC1CCCO1)C(=O)CNS(=O)(=O)c1ccc(OC)cc1 (configuration not stated) > 76.9 µM, CCOC(=O)Cn1cnc2c(cnn2-c2ccc(Cl)cc2)c1=O > 76.9 µM, CCC1(C)Cc2ccccc2-c2nc3n(c(=O)c21)CCCCC3 (configuration not stated) > 76.9 µM, COC(=O)C1=C(C(C)=O)C(c2ccc(C)cc2)n2nnnc2N1 (configuration not stated) > 76.9 µM, O=C(Cc1ccc(F)cc1)Nc1c2c(nn1-c1cccc(Cl)c1)CS(=O)C2 (configuration not stated) > 76.9 µM, CCCc1cc(=O)[nH]c(SCC(=O)Nc2nonc2N)n1 > 76.9 µM, Cc1nn(C)c(C)c1NC(=O)CSc1nc(Cc2ccccc2)nc2c1cnn2-c1ccccc1 > 76.9 µM, CC(C)n1c(SCC(=O)c2ccc3c(c2)OCCO3)nc2c1c(=O)n(C)c(=O)n2C > 76.9 µM, CCC1(C)Cc2c(sc3nc4n(c(=O)c23)CCCS4)CO1 (configuration not stated) > 76.9 µM, C=CCn1c(-c2ccoc2)n[nH]c1=S > 76.9 µM, O=C(C1CCC1)N1CCc2cc(S(=O)(=O)NC3CCCC3)ccc21 > 76.9 µM, COc1ccc(C(CC(=O)O)NC(=O)COc2ccccc2OC)cc1OC (configuration not stated) > 76.9 µM, O=C(NC1CCS(=O)(=O)C1)c1ccc(S(=O)(=O)NCC2CCCO2)cc1 (configuration not stated) > 76.9 µM, CN1CCN(/C=N/c2c(C#N)cnn2-c2ccccc2)CC1 > 76.9 µM, COC(=O)C1CCN(C(=O)C(C)Oc2ccc(Cl)cc2Cl)CC1 (configuration not stated) > 76.9 µM, CCOc1ccc(-c2[nH]nc3c2C(c2ccc4c(c2)OCO4)C(C#N)=C(N)O3)cc1OC (configuration not stated) > 76.9 µM, CCN(CC)C(=O)CSc1nnc(-c2cccnc2)n1CCc1ccccc1 > 76.9 µM, CSc1nc2nc3c(c(=O)n2[nH]1)CN(Cc1ccccc1)CC3 > 76.9 µM, Cc1ccc(-c2nnc(SCC(=O)Nc3ccc(S(=O)(=O)N4CCCCCC4)cc3)o2)cc1 > 76.9 µM, Cn1cccc1C(=O)Nc1nc(-c2ccccn2)cs1, Cn1c(=N)c(S(=O)(=O)c2ccccc2)cc2c(=O)n3ccccc3nc21 > 76.9 µM, CC1CC(c2ccccc2)n2nc(NC(=O)c3ccco3)nc2N1 (configuration not stated) > 76.9 µM, Nc1ccccc1NC(=O)c1ccccc1 > 76.9 µM, CCOC(=O)N1CCN(S(=O)(=O)c2ccc(OCC)c(C)c2)CC1 > 76.9 µM, O=C(Cn1c(C(=O)N2CCc3ccccc3C2)cc2sccc21)c1ccccc1 > 76.9 µM, O=C1Nc2ccccc2C12OCCO2 > 76.9 µM, COc1ccccc1N1CCN(C(=O)CSc2ccc3c(C)cc(C)nc3n2)CC1 > 76.9 µM, Cc1cccc(NC(=O)CSc2nnc(CSc3nc(C)cc(C)n3)o2)c1 > 76.9 µM, Cc1ccc(-c2cc(C(F)F)nc(NCc3cccnc3)n2)cc1 > 76.9 µM, CCOC(=O)N1CCC(NC(=O)CS(=O)Cc2nc(-c3ccc(OC)c(OC)c3)oc2C)CC1 (configuration not stated) > 76.9 µM, Cc1ccc(-c2nnn(CC(=O)N(CC(=O)NCc3ccccc3)c3cccc(C)c3C)n2)o1 > 76.9 µM, Cc1cc2c(cc1C)/C(=C\C(N)=O)NC(C)(C)C2 > 76.9 µM, CCCOCC(O)COc1ccccc1C(=O)N1CCOCC1 (configuration not stated) > 76.9 µM, COC(=O)c1[nH]c2cccc(C)c2c1NC(=O)CN1CCN(C(=O)c2ccco2)CC1 > 76.9 µM, O=S(=O)(c1ccccc1)c1ccccc1/C=N\O > 76.9 µM, COc1ccc(C(=O)N2CCN(C(=O)c3cc(OC)c(OC)c(OC)c3)CC2)cc1 > 76.9 µM, CCN(CC)C(=O)CN1CCN(c2ccccc2F)CC1 > 76.9 µM, CCN1CCN(CCCNC(=O)C(NC(=O)C2CCC(C)CC2)C(C)C)CC1 (configuration not stated) > 76.9 µM, COc1ccc(Br)cc1S(=O)(=O)N1CC(C)OC(C)C1 (configuration not stated) > 76.9 µM, CCCC(=O)OCC(=O)Nc1cc(C(C)(C)C)nn1-c1ccccc1 > 76.9 µM, NCCCSC1=NCCCN1 > 76.9 µM, COc1cc(-c2nnc(SCC(=O)c3ccc(C)cc3)o2)cc(OC)c1OC, CCCn1nnc(NC(=O)c2ccc(OCC)c(Cl)c2)n1 > 76.9 µM, CN(C)S(=O)(=O)c1ccc(C(=O)OCc2ccc(C#N)cc2)cc1 > 76.9 µM, Cc1ccc(NC(=O)C2CCCNC2=O)nc1 (configuration not stated) > 76.9 µM, CC(C#N)On1c(SC(C)C#N)nc2ccccc2c1=O (configuration not stated) > 76.9 µM, CS(=O)(=O)N1CCN(C(=O)NC23CC4CC(CC(C4)C2)C3)CC1 > 76.9 µM, Cc1cc(C)c(S(=O)(=O)Nc2ccc[nH]c2=O)c(C)c1 > 76.9 µM, CCOc1ccccc1C(=O)N1CCN(c2cccc(Cl)c2)CC1 > 76.9 µM, CCOC(=O)NCC(C#CCN(CC)CC)N(CC)CC (configuration not stated) > 76.9 µM, COCCN(CC(=O)NCc1ccccc1)C(=O)CCC(=O)Nc1ccccn1 > 76.9 µM, Cc1nn2c(-c3ccc(Cl)cc3Cl)nnc2s1 > 76.9 µM, Cc1cc(NC(=O)CSC2=NCCS2)no1 > 76.9 µM, O=S(=O)(c1ccc(Br)s1)N1CCN(c2ccccn2)CC1 > 76.9 µM, CC(C)N(C(=O)CSc1nnnn1C1CCCC1)C(C)C > 76.9 µM, Cc1cccc(NC(=O)CCNS(=O)(=O)c2cccc3nsnc23)c1 > 76.9 µM, CCOc1ccc(C(=O)N2CCCC2C(=O)O)cc1 (configuration not stated) > 76.9 µM, CC1(C)C(=O)C2(CCCCC2)C(=O)OC1c1cccs1 (configuration not stated) > 76.9 µM, CCOC(=O)c1cc2c(ccn2C)n1CC(=O)N1CCN(c2ccc(F)cc2)CC1 > 76.9 µM, CCCn1c(CNC(=O)c2ccccc2)nc2ccccc21 > 76.9 µM
